# Assay results taken from PubChem BioAssay AID504832 (National Center for Advancing Translational Sciences (NCATS), 2011).
# Screen size: about 310,000 compounds; about 18,000 (5.8%) were called active. The inconclusive results got no clear call from the source; some entries with a clear call stand among them for comparison. Calls come from the whole dose curve; as a rule, active = well fitted inhibition curve with a large enough effect; inconclusive = small, poorly fitted or top-dose-only effect, or another doubt; inactive = no such curve, though single readings can be large or run the other way. No potency is given beside an inconclusive call; the fits are too rough.
# Experiment: Primary qHTS for delayed death inhibitors of the malarial parasite plastid, 48 hour incubation
# Conditions: P. falciparum luciferase growth in erythrocytes; series mostly up to 28.7 µM
# How it was run: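 Parasite viability was followed by luminescence of a genomically integrated firefly luciferase. Cultures held 0.1% parasitemia at 2% hematocrit (final), incubated under 5% CO2 at 37 C.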
# Potency is the fitted concentration of half-maximal effect; tags give direction and shape of the fitted curve.
row,Structure (SMILES),Potency
1,CC(=NCc1ccc2c(c1)OCO2)c1c(O)n(-c2ccc(C)cc2)c(=O)[nH]c1=O,"inconclusive [inhibitor, partial curve, poor fit]"
2,Clc1ccc(CCC(Cn2ccnc2)Sc2c(Cl)cccc2Cl)cc1 (stereo not drawn),active: 1.47 µM
3,Cc1cncn1CCc1nc2c3ccccc3nc(SCC(=O)Nc3cccc(Cl)c3)n2n1,"inconclusive [inhibitor, single point]"
4,CC(=O)c1cc2c(cc1NC(=O)CN1CCCCCCC1)OCO2,"inconclusive [inhibitor, single point]"
5,COc1cc(C2Nc3ccc4ccccc4c3C3=C2C(=O)CC(C)(C)C3)ccc1OCC(=O)O (stereo not drawn),"inconclusive [inhibitor, single point]"
6,CC(Oc1ccc(Br)cc1Cl)C(=O)Nc1ccncc1 (stereo not drawn),"inconclusive [inhibitor, single point]"
7,CC(=O)OC(c1nc2ccccc2c(=O)n1C1CC2(OC1=O)c1ccccc1N1C(=O)C(C)(C)N(O)C12)C(C)C (stereo not drawn),active: 2.08 µM
8,COc1ccc2c(c1)C(c1ccc(N3CCOCC3)cc1)=NNC(c1cccnc1)=N2,"inconclusive [inhibitor, single point]"
9,Cc1ccc(NC(=O)Nc2nnc(-c3ccccc3F)s2)cc1,inactive
10,C[C@@]12C(=O)N(Cc3ccccc3)CC(=O)N1[C@H]1c3cc(Cl)ccc3OC[C@@H]1[C@@H]2c1ccccc1,active: 9.28 µM
11,COc1ccc(C2=Nn3c(nnc3-c3ccccc3OC)SC2)cc1OC,active: 10.4 µM
12,CC(C)(C)n1nc2c(c1NC(=O)c1cccc(C(F)(F)F)c1)CS(=O)C2 (stereo not drawn),"inconclusive [inhibitor, single point]"
13,CC1CCN(CC(=O)NCc2ccccc2)CC1,inactive
14,Cc1cnc(C(=O)OCc2csc(CC(=O)Nc3ccccc3C)n2)cn1,"inconclusive [inhibitor, single point]"
15,Cc1cccn2cc(CSc3nnc(Nc4ccc(C(C)C)cc4)s3)nc12,"inconclusive [inhibitor, single point]"
16,O=C1CCCC/C1=C\Nc1ccc(C(=O)O)c(O)c1,inactive
17,Cc1ccc(CNS(=O)(=O)c2cc3c(cc2C)NC(=O)CO3)cc1,"inconclusive [inhibitor, full curve, poor fit]"
18,CN(C)c1ccc(/C=C2\SC(=O)N(CC(O)Cn3c4ccccc4c4ccccc43)C2=O)cc1 (stereo not drawn),"inconclusive [inhibitor, partial curve, poor fit]"
19,N#CCCN(C(=O)COC(=O)C1CCN(S(=O)(=O)c2ccc3c(c2)OCCO3)CC1)c1ccccc1,"inconclusive [inhibitor, single point]"
20,Cc1cc(C)c(-c2cc(NC(=O)COC(=O)c3ccc(NC(=O)CC#N)cc3)n(-c3ccccc3)n2)cc1C,"inconclusive [inhibitor, partial curve, poor fit]"
21,COc1ccc(N2CCN(Cc3nc(-c4ccc(Cl)cc4Cl)no3)CC2)cc1,"inconclusive [inhibitor, partial curve, poor fit]"
22,N#CCCN(C(=O)CN1CCN(S(=O)(=O)c2ccc3c(c2)OCCO3)CC1)c1ccc(F)cc1,"inconclusive [inhibitor, single point]"

row,Structure (SMILES),Potency
1,CCOC(=O)C1CCN(C(=O)C2CCN(c3nc4ccc(OC)cc4s3)CC2)CC1,"inconclusive [inhibitor, partial curve, poor fit]"
2,O=C(c1cccs1)N1CCN(c2ccc(F)cc2)CC1,inactive
3,CCc1c(O)nc(SCC(=O)Nc2ccc(Br)cc2)n(-c2ccc(C)cc2)c1=O,"inconclusive [inhibitor, full curve, poor fit]"
4,Cc1nn(-c2ccccn2)c2c1C(=O)C(Br)CC2 (stereo not drawn),"inconclusive [inhibitor, partial curve, poor fit]"
5,C=CCn1c(SCC(=O)c2ccc(OC)cc2)nnc1-c1cc2cccc(OC)c2o1,"inconclusive [inhibitor, partial curve]"
6,O=c1c(-c2ccc(F)cc2)coc2c3c(ccc12)OCCO3,inactive
7,CN1CCN(C2=Nc3ccccc3Oc3ccc(Cl)cc32)CC1,"inconclusive [inhibitor, partial curve]"
8,Cc1ccc(C(=O)NCC(=O)OC(C)C(=O)NC2CCCCC2C)cc1C (stereo not drawn),"inconclusive [inhibitor, single point]"
9,CN1CCN(Cc2c(O)ccc3c2oc(=O)c2ccccc23)CC1,"inconclusive [inhibitor, single point]"
10,CCOc1cccc(CNc2ccc(O)cc2)c1OCc1ccc(Cl)cc1Cl,"inconclusive [inhibitor, single point]"
11,CCNCc1nc2cc(Cl)ccc2c(=O)[nH]1,inactive
12,COC(=O)C1=C(c2ccc(C(C)=O)cc2)C[C@@H]2CC[C@H]1N2C(=O)N1CCC(O)(c2ccc(Cl)cc2)CC1,active: 10.4 µM
13,Cc1ccc(OCC(=O)N(c2ccccn2)C2CCCCC2)c(C)c1,"inconclusive [inhibitor, single point]"
14,O=S(=O)(c1ccc(Br)cc1)N1CCN(Cc2ccco2)CC1,inactive
15,Cc1cc2cc(CNC(=O)C(C)Oc3ccccc3)ccc2n1C (stereo not drawn),inactive
16,CC(C)(C)c1cc(NC(=O)Nc2ccc(Cl)cc2Cl)no1,"inconclusive [inhibitor, partial curve, poor fit]"
17,CCc1cccc(OCCCn2ccnc2)c1,"inconclusive [inhibitor, partial curve, poor fit]"
18,COC(=O)CCN(C(=O)c1cccc([N+](=O)[O-])c1)c1ccccn1,inactive
19,CCN(C(=O)c1cc2c(=O)[nH]c3ccc(C)cc3c2s1)c1cccc(C)c1,"inconclusive [inhibitor, single point]"
20,CCOc1ncccc1C(=O)Nc1ccc(-c2cn3ccsc3n2)cc1,inactive
21,CCOc1ccc(N(C(C)C(=O)NN=C2CCCCCCC2)S(C)(=O)=O)cc1 (stereo not drawn),inactive
